Measured values from the supplement of paper PMC3334620.
Over roughly 33,000 sequences, “E-score (-0.5 to 0.5)” has its median near -0.043; the highest 2% begin near 0.37. The list shows a part of the results.

These sequences were tested against T1, Upc2 (UniProt Q12151) (assay: PBM E-score (8-mer binding enrichment) (E-score (-0.5 to 0.5)); higher = stronger / more preferred TF binding; most listed sequences are background and not binding sites). Conditions: protein concentration: 200 nM; construct: GST-full length.
T1 sequence: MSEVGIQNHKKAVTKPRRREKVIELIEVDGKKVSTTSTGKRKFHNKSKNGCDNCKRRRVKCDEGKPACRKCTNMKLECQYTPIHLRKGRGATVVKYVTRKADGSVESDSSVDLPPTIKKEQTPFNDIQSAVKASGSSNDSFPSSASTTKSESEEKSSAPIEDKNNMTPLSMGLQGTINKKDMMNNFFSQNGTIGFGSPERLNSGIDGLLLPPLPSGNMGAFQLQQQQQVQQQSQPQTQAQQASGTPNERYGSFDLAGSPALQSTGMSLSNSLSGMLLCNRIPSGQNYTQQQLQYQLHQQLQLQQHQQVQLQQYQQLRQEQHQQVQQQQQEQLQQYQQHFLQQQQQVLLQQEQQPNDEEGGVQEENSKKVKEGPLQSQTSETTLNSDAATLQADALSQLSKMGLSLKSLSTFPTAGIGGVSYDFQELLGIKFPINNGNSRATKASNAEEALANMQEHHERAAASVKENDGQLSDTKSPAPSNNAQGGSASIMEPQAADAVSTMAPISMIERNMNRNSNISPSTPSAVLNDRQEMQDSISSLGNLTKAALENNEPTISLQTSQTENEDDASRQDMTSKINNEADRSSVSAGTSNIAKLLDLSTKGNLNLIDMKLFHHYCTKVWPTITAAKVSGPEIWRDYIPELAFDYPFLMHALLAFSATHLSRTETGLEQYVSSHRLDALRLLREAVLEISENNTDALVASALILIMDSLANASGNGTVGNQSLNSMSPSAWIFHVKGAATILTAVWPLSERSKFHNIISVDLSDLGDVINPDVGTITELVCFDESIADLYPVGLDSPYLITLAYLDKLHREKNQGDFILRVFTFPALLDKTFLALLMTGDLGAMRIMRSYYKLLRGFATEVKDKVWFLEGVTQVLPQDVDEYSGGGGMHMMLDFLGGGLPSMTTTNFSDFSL
Method in brief: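 Full-length yeast transcription factors or their DNA-binding domains, GST-tagged and expressed with PURExpress, were applied at about 100-200 nM to universal all-10-mer Agilent arrays. These arrays had been made double-stranded by primer extension on fresh or once-stripped slides. Detection used fluorescent anti-GST, normalisation used masliner, and E-scores for ungapped eight-base words pooled with reverse complements came from the Universal PBM Analysis Suite.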

| Sequence | PBM E-score |
| --- | --- |
| CGAGGTCC | 0.0782 |
| AAACCTCT | -0.0987 |
| ATTCCATG | -0.0609 |
| GACCATCC | -0.254 |
| GATATACA | 0.0532 |
| AGAGTCCG | -0.0406 |
| ACCTTGTC | -0.253 |
| AGAGTTCC | -0.0879 |
| ACTCCGTG | -0.297 |
| CGCGATAA | 0.018 |
| CAGATGGA | -0.0266 |
| ACTACACA | 0.162 |
| AACAGGTC | 0.056 |
| ATGAAAAC | 0.133 |
| TGACAGAA | 0.0501 |
| CCGATAAA | -0.00359 |
| CACAGACA | -0.00356 |
| CTCCTAAG | -0.273 |
| GGGTGATA | 0.0644 |
| AGGGGCCG | -0.158 |
| ATGCATTG | -0.178 |
| TCGCGTCA | -0.0308 |
| CCCGGAGC | 0.0981 |
| GTCCATTA | 0.0585 |
| ATGTCTGC | -0.15 |

| Sequence | PBM E-score |
| --- | --- |
| AACGACCC | 0.365 |
| GCACTATA | 0.216 |
| CCGCCATA | -0.0589 |
| CATCTCCG | -0.0798 |
| CCCACTCC | -0.17 |
| AAGCCACA | -0.0657 |
| ATTCTTCC | -0.17 |
| GCACACCA | -0.124 |
| GGCTCACC | -0.23 |
| TGCAACAA | -0.117 |
| GTATTAGA | 0.213 |
| GCGGAGCC | -0.0172 |
| TCAAACCA | 0.137 |
| ACCAGCAG | -0.211 |
| CACTCTAC | 0.0382 |
| CGGTGGTC | 0.122 |
| AGCCAGGA | -0.126 |
| ACATTCAT | -0.214 |
| ATCGGGCA | -0.148 |
| CTCTATCC | -0.209 |
| CTTGCTCC | -0.255 |
| GTCGACTA | 0.117 |
| GGTTCTAC | -0.0373 |
| AATTCAAG | 0.0162 |
| ACTTGGGA | -0.224 |

| Sequence | PBM E-score |
| --- | --- |
| GCTCAAAA | 0.00891 |
| ATAAGATG | 0.188 |
| ATACCACC | -0.0309 |
| CATGCTAG | -0.119 |
| CATATGTC | 0.0205 |
| ATTTTCTC | -0.105 |
| AGTAGCCA | -0.191 |
| AGATTCGA | -0.0815 |
| AAAGACCT | -0.26 |
| GATTGATA | 0.0111 |
| CATGCTGC | -0.246 |
| CTGATAGA | -0.00561 |
| CTCATGCA | -0.15 |
| TTATTAAA | 0.0741 |
| GGCATGCC | 0.196 |
| CTTGTGAA | -0.182 |
| AACGTCAA | 0.104 |
| AATATGGT | 0.115 |
| ATAGGACC | -0.0988 |
| AAACGCCA | 0.137 |
| CGTAGTCC | -0.0309 |
| AAGGTGCA | -0.195 |
| CCCTTATA | 0.197 |
| AAGGAAAG | -0.171 |
| CTCAAGTC | -0.0205 |

| Sequence | PBM E-score |
| --- | --- |
| AACGGGGC | 0.206 |
| CAAGTCAA | -0.065 |
| ACAGTCCA | -0.0945 |
| TAATGCTA | -0.11 |
| GGTTCCTA | -0.0658 |
| ACAAGAGG | -0.227 |
| GATGGGCA | -0.0127 |
| ATCTCCAG | -0.0526 |
| CGCTTCCC | 0.00654 |
| TAGTAGCA | 0.0994 |
| AAAATCTG | -0.0273 |
| AAAGCACC | -0.0139 |
| ATCTGTGA | -0.0259 |
| CGTATGAG | 0.415 |
| CAACCATG | -0.257 |
| AGCTTGAG | -0.215 |
| CCGCGGCA | -0.117 |
| GTGGCTCA | -0.239 |
| ACCTACGA | 0.227 |
| CCAGTCGC | 0.0234 |
| AGTGCCGC | -0.129 |
| CAGGCCTA | -0.0808 |
| CCTCAGAA | -0.0458 |
| CACTGATA | -0.0955 |
| AGAGTTCG | 0.1 |

| Sequence | PBM E-score |
| --- | --- |
| GTGACGTA | 0.174 |
| AGTTCCAG | -0.188 |
| CGTAAGGA | 0.326 |
| ATCGATGA | -0.0519 |
| CCTCTCCC | -0.183 |
| CGGTAACG | 0.273 |
| GGCGAGCC | -0.191 |
| CGGCCTAA | 0.0611 |
| CTAGCGAA | -0.106 |
| AGATGAAA | -0.0712 |
| CATCGATC | -0.0852 |
| CAGACGCA | -0.19 |
| GATGGGAA | -0.0309 |
| CGCCCCGA | -0.0201 |
| AGGTTAAG | -0.214 |
| CCCCAACA | -0.167 |
| CCTGAAGG | -0.274 |
| GCACAAAC | 0 |
| CACACCGA | 0.151 |
| GGTTGACA | -0.0866 |
| ACATAACT | -0.0659 |
| CAGGTAAA | 0.0393 |
| ACCAACCA | -0.0187 |
| CAGGGACC | -0.169 |
| CGTCGTTC | 0.464 |

| Sequence | PBM E-score |
| --- | --- |
| CATGCGAG | 0.198 |
| GCTGAGCC | -0.00051 |
| AGCTTCAG | -0.298 |
| AAGAAAGG | -0.0897 |
| AGAAAATG | 0.00498 |
| ACAGGGAT | 0.00643 |
| ATCGAAGC | -0.00965 |
| CCGGGGCA | -0.153 |
| CCATTCAC | 0.00889 |
| AAAACCCT | -0.0378 |
| AGCCCCAT | -0.194 |
| CCATGGGA | -0.206 |
| CATGAGAA | -0.077 |
| CCTGGGTA | -0.236 |
| CTTCCGTC | 0.00548 |
| ACCGTATG | 0.381 |
| ACCAAGAT | -0.106 |
| AGTGAAGG | -0.178 |
| CCACCAAA | -0.102 |
| CGTTTACA | 0.441 |
| CCATCTAG | -0.18 |
| GCTGCTAC | 0.188 |
| GATACTGA | 0.0533 |
| CCCATTAC | -0.0721 |
| GGGCCGAC | -0.142 |

| Sequence | PBM E-score |
| --- | --- |
| ACTCGGCG | 0.192 |
| CTTGCTAA | -0.215 |
| CATTCAGG | -0.26 |
| AATGTGGA | -0.0568 |
| AGAGCGGC | -0.155 |
| ATATGATC | 0.0198 |
| ATTGCCAA | -0.0652 |
| GTGAAGCA | -0.175 |
| GCCAAAGA | -0.17 |
| ACAGGCAA | 0.0259 |
| CATAGGGC | -0.158 |
| GACGGGTA | -0.0987 |
| ATGACTAA | -0.0336 |
| CCTGGGGA | -0.288 |
| CGGTGTGA | -0.00752 |
| GAATGCGC | 0.0704 |
| GTAGACAC | -0.0415 |
| ACCGATGC | 0.0858 |
| CAAGAGCG | -0.041 |
| CTCCTCAG | -0.0401 |
| TCCGTCGA | -0.00761 |
| GTCATCGA | -0.034 |
